The campaign covered roughly 39,000 compounds. About 220 (0.56%) showed activity. The list shows a part of the results.
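Also: static incubation at 37 °C against the wild-type strain, values averaged over two biological replicates.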

In this assay the test system is Escherichia coli K-12 BW25113. The experiment in a line: relative growth (OD600 normalised to plate interquartile mean) (fraction); higher = less growth inhibition, active = 0.2 or less. Conditions: 50 µM; LB; incubation time: overnight (16-24 h).
As for `C[C@H]1CCCCO[C@H](CN(C)Cc2ccccc2)[C@@H](C)CN([C@@H](C)CO)C(=O)c2cc(NC(=O)Nc3ccc(F)cc3)ccc2O1`, the relative growth was inactive: 1. For `C[C@@H]1CN([C@H](C)CO)C(=O)Cc2cc(NC(=O)Nc3ccccc3)ccc2O[C@H]1CN(C)Cc1ccc(C(=O)Nc2ccccc2N)cc1`, the relative growth was inactive: 1.01. For `C[C@@H]1O[C@@H](O[C@H]2[C@@H](Oc3cc(O)c4c(c3)O[C@H](c3ccc(O)cc3)CC4=O)O[C@H](CO)[C@@H](O)[C@@H]2O)[C@H](O)[C@H](O)[C@H]1O`, the relative growth is inactive: 1. As to `C[C@@H]1CCCCO[C@@H](CN(C)Cc2ccccc2)[C@H](C)CN([C@@H](C)CO)C(=O)c2cc(NC(=O)NC3CCCCC3)ccc2O1`, the relative growth was inactive: 1.01.

`Cc1nc2c(=O)n(C)c(=O)n(C)c2nc1Cl`: the relative growth was inactive: 0.948. On to `C[C@@H]1CN([C@@H](C)CO)C(=O)c2cc(NC(=O)Nc3ccc(C(F)(F)F)cc3)ccc2O[C@@H](C)CCCCO[C@H]1CN(C)S(=O)(=O)c1ccccc1`, for which the relative growth is inactive: 0.989. In the case of `Cc1ccc([N+](=O)[O-])cc1S(N)(=O)=O`, the relative growth is inactive: 1.02. With `Cc1oncc1C(=O)Nc1ccc(C(F)(F)F)cc1`, the relative growth was inactive: 0.955. The result for `C[C@@H]1CN([C@@H](C)CO)C(=O)CCCn2nncc2CO[C@H]1CN(C)C(=O)Nc1ccnc(N2CCOCC2)c1` reads inactive: 0.984; that for `Cc1cc(C(=O)Nc2cccc3c2O[C@@H](CN(C)S(=O)(=O)c2ccccc2)[C@@H](C)CN([C@H](C)CO)C3=O)n(C)n1`, inactive: 1.02; that for `O=C1CCC(=O)N1CN1CCOCC1`, inactive: 1.03. As for `COC(=O)[C@@H](Cc1ccccc1)N[C@H](/C=C/C1CC1)[C@@H](O)CCn1cc(-c2cccc(/C=C/C(=O)NO)c2)nn1`, the relative growth is inactive: 1.

Take `N#C[C@H]1[C@H](c2ccc(C#Cc3ccccn3)cc2)[C@@H](CO)N1C(=O)CN1CCOCC1`: the relative growth was inactive: 0.977. On to `COCCn1cc(N)cn1`, for which the relative growth is inactive: 0.981.

In the case of `C[C@@H]1CN([C@H](C)CO)C(=O)Cc2cc(NS(=O)(=O)c3cn(C)cn3)ccc2O[C@H]1CN(C)C(=O)Nc1ccc(F)cc1`, the relative growth was inactive: 0.998. Consider `COc1ccc(CNc2nc(N3CCCC3CO)ncc2C(=O)NCc2ncccn2)cc1Cl` (stereo not drawn), for which the relative growth is inactive: 1.04.

As for `Cc1ccc(S(=O)(=O)N(C)C[C@@H]2Oc3c(NC(=O)c4cc(C)nn4C)cccc3C(=O)N([C@@H](C)CO)C[C@@H]2C)cc1`, the relative growth is inactive: 0.972. As for `C[C@@H]1CN([C@H](C)CO)C(=O)c2cc(-c3cccc(C(=O)N(C)C)c3)cnc2O[C@@H]1CN(C)S(=O)(=O)c1cccc(F)c1`, the relative growth was inactive: 0.976. In the case of `C[C@@H]1CCCCO[C@@H](CN(C)C(=O)Nc2ccc3c(c2)OCO3)[C@H](C)CN([C@@H](C)CO)C(=O)c2cc(NC(=O)Nc3ccc(C(F)(F)F)cc3)ccc2O1`, the relative growth was inactive: 1.02. Regarding `O=C(O)c1cccnc1Nc1cccc(C(F)(F)F)c1`, the relative growth is inactive: 0.978. Regarding `C[C@H](CO)N1C[C@H](C)[C@@H](CN(C)Cc2ccc(C(=O)Nc3ccccc3N)cc2)Oc2c(NC(=O)Nc3ccc4c(c3)OCO4)cccc2C1=O`, the relative growth was inactive: 1.03. On to `C=C(O)C(=O)O`, for which the relative growth was inactive: 1.03.

As for `O=C(C[C@@H]1C=C[C@@H](NC(=O)CN2CCOCC2)[C@@H](CO)O1)NC1CCC1`, the relative growth is inactive: 0.974.

Consider `CO[C@H](CN(C)S(=O)(=O)c1ccc(F)cc1)[C@H](C)CN([C@H](C)CO)S(=O)(=O)c1cccc(Cl)c1`, for which the relative growth was inactive: 0.984. Regarding `CC1CC(OC(=O)C(O)c2ccccc2)CC(C)(C)C1` (stereo not drawn), the relative growth is inactive: 1.09. For `Cc1ccc(S(=O)(=O)Nc2ccc3c(c2)C(=O)N([C@@H](C)CO)C[C@@H](C)[C@@H](CN(C)Cc2ccc(C(F)(F)F)cc2)OCCCC[C@@H](C)O3)cc1`, the relative growth was inactive: 1.08.

As to `Cc1noc(C)c1NC(=O)N(C)C[C@@H]1OCCCC[C@@H](C)Oc2ccc(NC(=O)Nc3ccc4c(c3)OCO4)cc2C(=O)N([C@@H](C)CO)C[C@H]1C`, the relative growth was inactive: 1.03. Take `Cc1noc(C)c1NC(=O)N(C)C[C@@H]1Oc2ccc(NC(=O)NC(C)C)cc2CC(=O)N([C@@H](C)CO)C[C@@H]1C`: the relative growth was inactive: 0.977.

As for `C[C@@H]1CCCCO[C@@H](CN(C)Cc2ccc3c(c2)OCO3)[C@@H](C)CN([C@H](C)CO)C(=O)c2cc(NC(=O)Nc3ccc4c(c3)OCO4)ccc2O1`, the relative growth was inactive: 0.997. Then `Cc1noc(C)c1NC(=O)Nc1cccc2c1O[C@@H](CN(C)C(=O)Nc1ccc(C(F)(F)F)cc1)[C@H](C)CN([C@@H](C)CO)C2=O`, with inactive: 0.954; and `COc1cccc(NC(=O)N(C)C[C@H]2Oc3ncc(C#Cc4ccncc4)cc3C(=O)N([C@H](C)CO)C[C@@H]2C)c1`, with inactive: 1.01; and `Cc1cnc(CNC(=O)c2c(=O)c3ccc(N4CCCN(C)CC4)nc3n3c2sc2ccccc23)cn1`, with inactive: 1.02. `C[C@@H]1CN([C@@H](C)CO)C(=O)c2cc(NC(=O)Cc3ccccc3)ccc2O[C@@H](C)CCCCO[C@H]1CN(C)S(=O)(=O)c1cccs1`: the relative growth was inactive: 1.01. As to `CCS(=O)(=O)Nc1ccc2c(c1)C(=O)N(C)[C@H]1CC[C@@H](CC(=O)N3CCN(C)CC3)O[C@H]1CO2`, the relative growth is inactive: 0.988. In the case of `COc1ccc2c3c(n(c2c1)C)[C@H](CO)N(Cc1cc(cc(c1)OC)OC)C[C@]13CCN(CC1)S(=O)(=O)c1cn(cn1)C`, the relative growth was inactive: 0.99. Regarding `CCc1nc2c(C)cc(N3CCN(CC(=O)N4CC(O)C4)CC3)cn2c1N(C)c1nc(-c2ccc(F)cc2)c(C#N)s1`, the relative growth was inactive: 0.973. As for `COc1ccc(NC(=O)N(C)C[C@H]2Oc3ccc(NC(=O)Nc4ccc(C(F)(F)F)cc4)cc3C(=O)N([C@H](C)CO)C[C@@H]2C)cc1`, the relative growth was inactive: 1.01. Regarding `O=C(Nc1ccccc1C(=O)O)c1nnc[nH]1`, the relative growth is inactive: 0.892. In the case of `C[C@@H](O)CN1C(=S)S[C@@H]2CS(=O)(=O)C[C@@H]21`, the relative growth is inactive: 0.907. With `COc1ccccc1-c1cnc2c(c1)C(=O)N([C@H](C)CO)C[C@@H](C)[C@H](CN(C)C(=O)c1cccnc1)O2`, the relative growth was inactive: 0.969. For `C[C@@H]1CCCCO[C@H](CN(C)S(=O)(=O)c2cn(C)cn2)[C@@H](C)CN([C@H](C)CO)C(=O)c2cc(NS(=O)(=O)c3ccccc3)ccc2O1`, the relative growth was inactive: 1.02. For the molecule `O=C(C[C@@H]1CC[C@@H]2[C@H](COC[C@@H](O)CN2S(=O)(=O)c2ccccc2Cl)O1)NCc1ccccc1Cl`, the relative growth was inactive: 1.01. Regarding `COc1ccc(CN(C)C[C@H]2OCCCC[C@@H](C)Oc3ccc(NC(=O)Nc4ccc(F)cc4)cc3C(=O)N([C@H](C)CO)C[C@H]2C)cc1`, the relative growth was inactive: 1.04. For the molecule `CC(C)(C)OC(=O)N1CCNC(=O)C1`, the relative growth was inactive: 1.06. Then `C[C@@H]1CN([C@@H](C)CO)C(=O)c2cccc(NS(=O)(=O)c3ccc(F)cc3)c2O[C@H]1CN(C)S(=O)(=O)c1cccs1`, with inactive: 1.01.

As to `CCOC(=O)CCC(=O)OC1C(OC2C(C)C(OC3CC(C)(OC)C(O)C(C)O3)C(C)C(=O)OC(CC)C(C)(O)C(O)C(C)C(=O)C(C)CC2(C)O)OC(C)CC1N(C)C` (stereo not drawn), the relative growth is inactive: 0.709.

For the molecule `C[C@@H]1CN([C@@H](C)CO)C(=O)c2cc(NC(=O)Nc3ccccc3)ccc2O[C@@H](C)CCCCO[C@H]1CN(C)CC1CCCCC1`, the relative growth was inactive: 0.986.

With `COc1ccc(CN(C)C[C@@H]2OCCCC[C@H](C)Oc3ccc(NC(=O)NC(C)C)cc3C(=O)N([C@H](C)CO)C[C@@H]2C)cc1`, the relative growth was inactive: 0.995. The result for `CN(C)CC(=O)N[C@H]1C=C[C@H](CC(=O)O)O[C@@H]1CO` reads inactive: 0.918; that for `C[C@H](CO)N1C[C@H](C)[C@H](CN(C)CC2CCCCC2)OCCCC[C@H](C)Oc2ccc(NC(=O)CCCN(C)C)cc2C1=O`, inactive: 0.985.

Take `NC(=O)c1ccc(N)cc1N1CCCC1`: the relative growth is inactive: 1.01. As for `COc1cccc(NC(=O)N(C)C[C@@H]2Oc3cc(C#CC4(O)CCCC4)ccc3S(=O)(=O)N([C@@H](C)CO)C[C@H]2C)c1`, the relative growth was inactive: 0.972. Consider `C[C@H]1CN([C@@H](C)CO)C(=O)c2cc(C#CCN(C)C)cnc2O[C@@H]1CN(C)S(C)(=O)=O`, for which the relative growth is inactive: 0.996. `C1CCN2CC3CC(CN4CCCCC34)C2C1.O=S(=O)(O)O` (stereo not drawn): the relative growth was inactive: 1.09. As to `NCC1OC(OC2C(N)CC(N)C(O)C2OC2OC(CO)C(O)C2O)C(N)C(O)C1O.O=S(=O)(O)O` (stereo not drawn), the relative growth is inactive: 0.78. For the molecule `CO[C@H]1CN(C)C(=O)c2cc(NS(=O)(=O)CC(F)(F)F)ccc2OC[C@@H](C)N(C(=O)c2ccc3c(c2)OCO3)C[C@H]1C`, the relative growth was inactive: 0.979. In the case of `CNC[C@@H]1CC[C@@H](N)[C@@H](O[C@H]2[C@H](O)[C@@H](O[C@H]3OC[C@](C)(O)[C@H](NC)[C@H]3O)[C@H](N)C[C@@H]2N)O1`, the relative growth is inactive: 0.977.

`O=P(O)(O)C(Cl)(Cl)P(=O)(O)O`: the relative growth was inactive: 1.03. For the molecule `COc1ccc([Si](C)(C)[C@@H]2[C@@H](CCO)O[C@]3(C(=O)N(Cc4ccc(N5C(=O)c6ccccc6Oc6ccccc65)cc4)c4ccccc43)[C@H]2C)cc1`, the relative growth is inactive: 0.906. Take `Cc1cnc(N2C[C@H]3OCCN(S(=O)(=O)N(C)C)[C@H]3C2)nc1`: the relative growth is inactive: 0.995. With `C[C@@H]1CCCCO[C@@H](CN(C)S(=O)(=O)c2ccc(F)cc2)[C@H](C)CN([C@H](C)CO)C(=O)c2cc(NS(=O)(=O)c3ccc(Cl)cc3)ccc2O1`, the relative growth is inactive: 1.03. As for `O=c1ccc2ccc(O)cc2o1`, the relative growth is inactive: 1.02. `CO[C@@H]1CN(C)C(=O)c2cc(NS(=O)(=O)CC(F)(F)F)ccc2OC[C@@H](C)N(Cc2ccccn2)C[C@@H]1C`: the relative growth was inactive: 1.02.

The values above are taken from the supplement of paper PMC9446081.
